The full ranking holds about 13,000 compounds; the median of “IFI” is about 4, and the highest 2% start at about 17. This is one part of the list.
assay: GSK_TCMDC: Inhibition Frequency Index (IFI). The number of non-kinase HTS assays where a compound showed > 50 % inhibition, expressed as a percentage of the number of such assays in which the compound was tested (-0 is zero); type: functional

Compared with `CS(=O)(=O)c1ccc(CCNCc2ccc(-c3ccc(CN(C(=O)C4CC(=O)c5ccccc54)C4CCN(Cc5ccccc5)CC4)cc3)nc2)cc1` (centres undefined), `O=C(NCCc1ccccc1)N(Cc1cccc(-c2ccc(CNC3CCCC3)cc2)c1)C1CCN(Cc2ccccc2)CC1` is higher in IFI: 5.41% for the first, 7.86% for the second.

First: CC(CC(=O)NCC1(c2ccc(F)cc2Cl)CCOCC1)C(=O)c1ccc(Cl)cc1 (centres undefined)
Second: O=C(C=Cc1ccc(Cl)c(Cl)c1)NCCCCCN1CCC(CCCNS(=O)(=O)c2ccc(F)cc2)CC1
The IFI of the first is lower: 1.56% for the first, 8.63% for the second.

Compared with `O=S(=O)(NCCN1CCCC1)c1ccc(-c2cccc(CNCc3ccsc3)c2)s1`, `O=C(Nc1nc2cc(S(=O)(=O)NCc3ccc(Cl)c(Cl)c3)ccc2n1CCCN1CCCC1)c1ccc(Cl)cc1` is higher in IFI: 6.9% for the first, 8.05% for the second.

First: O=C(NC1CCC(N2CCC(O)(c3ccc(F)cc3)CC2)CC1)c1cc2ccccc2[nH]1 (centres undefined)
Second: Cc1ccccc1C1CCN(C2CCC(NC(=O)/C=C/c3ccc(C(F)(F)F)cc3F)CC2)CC1 (centres undefined)
The IFI of the first is lower: 1.54% for the first, 13.3% for the second.

Going from `CC(C)N1CCC(N(Cc2ccc(-c3ccc(C(F)(F)F)cc3)cc2)C(=O)Cn2c(SCc3cccc(F)c3F)nc(=O)c3ccccc32)CC1` to `O=C(c1ccc(-c2ccc(-c3nc4cc(C(F)(F)F)ccc4[nH]3)s2)cc1)N1CCN(CCc2ccccc2)CC1`, the IFI falls from 5.71% to 5.66%.

Compared with `CC1CN(c2cc(=O)n(Cc3ccc(NC(=O)Nc4ccc(-c5ccccc5)cc4)cc3)cn2)CC(C)N1` (centres undefined), `Cc1cccc2nc(-c3ccc(-c4ccc(NC(=O)C(C)CN5CCN(C)CC5)cc4)s3)[nH]c12` (centres undefined) is lower in IFI: 2.9% for the first, 1.89% for the second.

Going from `Cc1cc(C)c(S(=O)(=O)N2CCCCC(c3cccc(C(F)(F)F)c3)=N2)c(C)c1` to `O=S(=O)(c1c(Cl)cc(Cl)cc1Cl)N1CCCCC(c2ccc(C(F)(F)F)cc2)=N1`, the IFI rises from 1.46% to 1.5%.

First: CCC(C)NS(=O)(=O)c1ccc2nc(Nc3ccc(C)cc3)n(C3CCCCC3)c2c1 (centres undefined)
Second: CN1CCCC1CNS(=O)(=O)c1ccc(C(=O)NCC2CC2)cc1 (centres undefined)
The IFI of the first is higher: 2.94% for the first, -0% for the second.

Compared with `O=C(Nc1ccc(OC2CCN(Cc3ccccc3)C2)c(Cl)c1)c1cccs1` (centres undefined), `O=C(NC1CCN(Cc2ccc(F)cc2)CC1)c1ccc(-c2cccc(C(F)(F)F)c2)s1` is higher in IFI: 6.06% for the first, 24.6% for the second.

Compared with `COc1ccc(NC(=O)/C=C/c2cc(F)cc(C(F)(F)F)c2)cc1OCCN(C(C)C)C(C)C`, `CC(C)(C(=O)Nc1ccc(N2CCC3(CCCN(CC4CC4)C3)CC2)c(Cl)c1)c1cccc(C(F)(F)F)c1` is higher in IFI: 3.7% for the first, 6.67% for the second.

Going from `c1ccc(CSC2=NNC(c3ccccn3)S2)cc1` (centres undefined) to `Oc1c(C(Nc2ccccn2)c2ccco2)cc(Cl)c2cccnc12` (centres undefined), the IFI rises from 4.08% to 22.6%.

First: CCc1cn2c3c(cc(C(=O)N[C@@H](Cc4ccccc4)[C@H](O)CNCCOC)cc13)N(C)S(=O)(=O)CC2
Second: CCCCNC[C@@H](O)[C@H](Cc1ccccc1)NC(=O)c1cc(NCC)cc(N2CCCCS2(=O)=O)c1
The IFI of the first is lower: -0% for the first, 1.47% for the second.

Compared with `COc1ccc2ncc(F)c(CCN3CCC(NCc4cc(OC)c5c(c4)OCCO5)CC3)c2n1`, `COc1ccc2ncc(C#N)c(CCN3CCC(NCc4cnc5c(c4)OCCO5)CC3)c2n1` is higher in IFI: -0% for the first, 2.33% for the second.

First: COc1ccc(Nc2c3ccc(Cl)cc3nc3ccc(OC)cc23)cc1
Second: COc1ccc2c(=NN=Cc3ccc(OC)c4ccccc34)cc(C)[nH]c2c1
The IFI of the first is higher: 5.11% for the first, 2.14% for the second.

First: CCCCN(CCCC)Cc1cc2ccccc2cc1O
Second: Cc1sc(C)c(C(F)(F)F)c1CNCCCNc1cc(=O)c2ccccc2[nH]1
The IFI of the first is higher: 2.22% for the first, 0.73% for the second.

Compared with `Fc1ccccc1C=NN=c1cc[nH]c2ccccc12`, `O=C(Oc1ccc(Cl)cc1C(=O)Nc1ccc([N+](=O)[O-])cc1Cl)c1ccccc1` is higher in IFI: 1.45% for the first, 22.4% for the second.

First: COc1ccc2nccc([C@@H](O)CN3CCC(NCc4ccc5c(n4)NCCC5)CC3)c2c1
Second: COc1ccc2nccc([C@@H](O)CN3CCC(NCc4cc5c(cc4F)SCC(=O)N5)CC3)c2n1
The IFI of the first is lower: 0.88% for the first, 3.1% for the second.

First: CCC(C)OC(=O)C1=C(C)NC2=C(C(=O)CC(c3ccc(OC)c(OC)c3)C2)C1c1ccc(C)o1 (centres undefined)
Second: COc1ccc2nccc(N3CCN(CCNCc4ccc5c(n4)NC(=O)CO5)CC3)c2n1
The IFI of the first is higher: 2.72% for the first, 0.72% for the second.

Going from `Nc1nc(N)c2nc(C3CC=CCC3)c(N)nc2n1` (centres undefined) to `Cc1cc2ccc(-c3cccc(CN)c3)cc2nc1N`, the IFI falls from 2.84% to -0%.

First: Cc1ccc(CON2C(=N)N=C(N)NC2(C)C)cc1C
Second: Cc1ccc(Nc2nccc(N(C)c3ccc4c(c3)nc(NC(=O)Cc3ccc(Cl)c(Cl)c3)n4C)n2)cc1S(N)(=O)=O
The IFI of the first is lower: 1.43% for the first, 9.16% for the second.

Going from `COc1cc(CNCCCNc2nc(=O)c3sccc3[nH]2)c2[nH]cc(Cl)c2c1` to `CCNc1cc(C)nc(Nc2ccc(NC(=O)c3c(F)cccc3Cl)cc2)n1`, the IFI rises from 5.88% to 18.2%.

Going from `CCc1c[nH]c2c(N3CCCC3=O)cc(C(=O)N[C@@H](Cc3ccccc3)[C@H](O)CNC3CCCCC3)cc12` to `O=C(Nc1cccnc1)c1cc(-c2cccnc2)nc2ccc(Cl)cc12`, the IFI falls from 2.19% to 0%.

Reference: ChEMBL document CHEMBL1157539, “Thousands of chemical starting points for antimalarial lead identification” (Nature, 2010)
